In the supplement of paper PMC11125491:
± gives the standard deviation of the averaged measurements. Growth of baker's yeast expressing single-residue variants of Pneumocystis jirovecii dihydrofolate reductase in 8.8 or 44 µM methotrexate (about 75% and 90% inhibition of the wild type). Selection coefficient per generation; 0 = like wild type, above 0 = less sensitive, below 0 = more sensitive or loss of function. No active / inactive call per row; the paper calls resistant above 0.220 (8.8 µM) or 0.243 (44 µM) together with a significance test. At 44 µM about 15% of codons end with one read or none, so the lowest values are floors (replicate rank correlation 0.74; 0.94 at 8.8 µM).

B1: UniProt A0EPZ9; numbered along this chain (parent)
chain: MDWQKSLTLIVALTLSRGIGLKNDLPWKLKSDMMFFSRVTSGLLVTRSTGQMNVVLMGRKTWESLPAHSRPLKNRINVVISRQEVLDLGGGAYHARSLDDALALLSQIYDSTSKIQLNRVFVIGGGELCKAAMEHSRLNRIIATVIHNEVDCDVFFPIDFRSSQSCLPWRKQDHSVLEAWVGSKVPQGKINENGFIYEFEMWIRDI

Variants of: B1
Assay: selection coefficient against synonymous wild-type codons (log2 per generation); higher = faster growth than wild type
Conditions: with Saccharomyces cerevisiae carrying the variant on a plasmid
Experimental: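 Pooled growth of yeast carrying single-residue variants of P. jirovecii dihydrofolate reductase (own DFR1 gene intact), two passages at 30 °C, three cultures, sequenced before and after. Codons with under 15 starting reads are left out; codons of one change are averaged.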

MDWQKSLTLIVALTLSRGIGLKNDLPWKLKSDMMFFSRVTSGLLVTRSTGQMNVVLMGRKTWESLPAHSRPLKNRINVVISRQEVLDLGGGAYHARSLDDALALLSQIYDSTSKIQLNRVFVIGGGELCKAAMEHSRLNRIIATVIHNEVDCDVFFPIDFRSSQSCLPWRKQDHSVLEAWDGSKVPQGKINENGFIYEFEMWIRDI [V181D]
selection coefficient against synonymous wild-type codons (log2) (methotrexate 8.8 µM): -0.0978 ± 0.088 | selection coefficient against synonymous wild-type codons (log2) (methotrexate 44 µM): -0.185 ± 0.13

MDWQKSLTLIVALTLSRGIGLKNDLPWKLKSDMMFFSRVTSGLLVTRSTGQMNVVLMGRKTWESLPAHSRPLKNRINVVISRQEVLDLGGGAYHARSLDDALALLSQIYDSTSKIQLNRVFVIGGGELCKAAMEHSRLNRIIATVIHNEVDCDVFFPIDFRSSQSCLPWRKQDHSVLEAWEGSKVPQGKINENGFIYEFEMWIRDI [V181E]
selection coefficient against synonymous wild-type codons (log2) (methotrexate 8.8 µM): 0.00309 ± 0.0089 | selection coefficient against synonymous wild-type codons (log2) (methotrexate 44 µM): -0.119 ± 0.12

MDWQKSLTLIVALTLSRGIGLKNDLPWKLKSDMMFFSRVTSGLLVTRSTGQMNVVLMGRKTWESLPAHSRPLKNRINVVISRQEVLDLGGGAYHARSLDDALALLSQIYDSTSKIQLNRVFVIGGGELCKAAMEHSRLNRIIATVIHNEVDCDVFFPIDFRSSQSCLPWRKQDHSVLEAWFGSKVPQGKINENGFIYEFEMWIRDI [V181F]
selection coefficient against synonymous wild-type codons (log2) (methotrexate 8.8 µM): 0.00369 ± 0.048 | selection coefficient against synonymous wild-type codons (log2) (methotrexate 44 µM): -0.0011 ± 0.044

MDWQKSLTLIVALTLSRGIGLKNDLPWKLKSDMMFFSRVTSGLLVTRSTGQMNVVLMGRKTWESLPAHSRPLKNRINVVISRQEVLDLGGGAYHARSLDDALALLSQIYDSTSKIQLNRVFVIGGGELCKAAMEHSRLNRIIATVIHNEVDCDVFFPIDFRSSQSCLPWRKQDHSVLEAWGGSKVPQGKINENGFIYEFEMWIRDI [V181G]
selection coefficient against synonymous wild-type codons (log2) (methotrexate 8.8 µM): -0.0201 ± 0.049 | selection coefficient against synonymous wild-type codons (log2) (methotrexate 44 µM): -0.0689 ± 0.049

MDWQKSLTLIVALTLSRGIGLKNDLPWKLKSDMMFFSRVTSGLLVTRSTGQMNVVLMGRKTWESLPAHSRPLKNRINVVISRQEVLDLGGGAYHARSLDDALALLSQIYDSTSKIQLNRVFVIGGGELCKAAMEHSRLNRIIATVIHNEVDCDVFFPIDFRSSQSCLPWRKQDHSVLEAWHGSKVPQGKINENGFIYEFEMWIRDI [V181H]
selection coefficient against synonymous wild-type codons (log2) (methotrexate 8.8 µM): 0.103 ± 0.014 | selection coefficient against synonymous wild-type codons (log2) (methotrexate 44 µM): 0.0353 ± 0.056

MDWQKSLTLIVALTLSRGIGLKNDLPWKLKSDMMFFSRVTSGLLVTRSTGQMNVVLMGRKTWESLPAHSRPLKNRINVVISRQEVLDLGGGAYHARSLDDALALLSQIYDSTSKIQLNRVFVIGGGELCKAAMEHSRLNRIIATVIHNEVDCDVFFPIDFRSSQSCLPWRKQDHSVLEAWIGSKVPQGKINENGFIYEFEMWIRDI [V181I]
selection coefficient against synonymous wild-type codons (log2) (methotrexate 8.8 µM): -0.0882 ± 0.082 | selection coefficient against synonymous wild-type codons (log2) (methotrexate 44 µM): -0.0319 ± 0.11

MDWQKSLTLIVALTLSRGIGLKNDLPWKLKSDMMFFSRVTSGLLVTRSTGQMNVVLMGRKTWESLPAHSRPLKNRINVVISRQEVLDLGGGAYHARSLDDALALLSQIYDSTSKIQLNRVFVIGGGELCKAAMEHSRLNRIIATVIHNEVDCDVFFPIDFRSSQSCLPWRKQDHSVLEAWLGSKVPQGKINENGFIYEFEMWIRDI [V181L]
selection coefficient against synonymous wild-type codons (log2) (methotrexate 8.8 µM): -0.0387 ± 0.056 | selection coefficient against synonymous wild-type codons (log2) (methotrexate 44 µM): -0.123 ± 0.11

MDWQKSLTLIVALTLSRGIGLKNDLPWKLKSDMMFFSRVTSGLLVTRSTGQMNVVLMGRKTWESLPAHSRPLKNRINVVISRQEVLDLGGGAYHARSLDDALALLSQIYDSTSKIQLNRVFVIGGGELCKAAMEHSRLNRIIATVIHNEVDCDVFFPIDFRSSQSCLPWRKQDHSVLEAWMGSKVPQGKINENGFIYEFEMWIRDI [V181M]
selection coefficient against synonymous wild-type codons (log2) (methotrexate 8.8 µM): 0.00842 ± 0.035 | selection coefficient against synonymous wild-type codons (log2) (methotrexate 44 µM): -0.272 ± 0.085
